Measurements published in PubChem BioAssay AID1508623 (National Center for Advancing Translational Sciences (NCATS), 2021).
Out of some 48,000 compounds screened, about 450 (0.94%) were called active. Not shown: some 19% with an inconclusive outcome. Calls come from the whole dose curve; as a rule, active = well fitted inhibition curve with a large enough effect; inconclusive = small, poorly fitted or top-dose-only effect; inactive = no such curve, though single readings can be large or run the other way. The list shows a part of the results.

assay: Primary qHTS for Identification of Small Molecule Inhibitors of Huntingtin Promoter Activity; settings: HEK293 HTT promoter firefly luciferase reporter (activity 0% = vehicle and -100% = no light), 24 h; series mostly up to 57.5 µM; activity change, negative = inhibition: at the top concentration; note: nearly all actives have a fitted effect of over 50% in size
In short: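 Firefly luciferase readout (Dual-Glo, 10 min RT) after 24 h, 37 °C compound exposure (final up to 57.5 uM) of HEK293 reporter cells cultured 24 h beforehand; PTC124 at 50 uM final as control inhibitor; activity scaled vehicle 0%, zero RLU -100%.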

SMILES	activity change, negative = inhibition
CCOC(=O)C1CCN(C(=O)c2nn(-c3ccc(OC)cc3)c(=O)c3c2c2ccccc2n3C)CC1	inactive: -11%
Cc1ccc(Sc2ccc(N3CCCC(C(=O)Nc4ccc(F)cc4F)C3)nn2)cc1 (stereo not given)	inactive: -16.2%
Cc1ccc(-c2noc(-c3nnn(CC(=O)Nc4cc(Cl)ccc4C)c3N)n2)cc1	inactive: 4.14%
Cc1nn(C)c2c1c(C(F)(F)F)cc(=O)n2CC(=O)N1CCC(C)CC1	inactive: -3.54%
CC1CCN(S(=O)(=O)c2cc(C(=O)N3CCN(c4ccccc4F)CC3)n(C)c2)CC1	inactive: -30.6%
CCC1CN(C(=O)C2CCN(S(=O)(=O)c3c(C)noc3/C=C/c3ccccc3F)CC2)c2cc(C)ccc2O1 (stereo not given)	inactive: -26.1%
COCCN1CCN(Cc2ccc(C(=O)NC(C)C)cc2)C(=O)C1=O	inactive: 18.7%
CCCCn1c(SCC(=O)NCc2ccc(C)cc2)nc2c(sc3ccccc32)c1=O	inactive: -6.21%
COc1ccc(NC(=O)c2oc3ccccc3c2NC(=O)Cc2cccs2)c(OC)c1	inactive: -7.15%
COc1ccc(CNC(=O)C(C)n2c(=O)cc(C)c3c(C)nn(-c4ccccc4)c32)cc1 (stereo not given)	inactive: -21.2%
NS(=O)(=O)c1cc2c(cc1Cl)NC(C(Cl)Cl)NS2(=O)=O (stereo not given)	inactive
Cc1nc2c(c(C)nn2-c2ccccc2)c(C)c1CCC(=O)NCc1ccccc1	inactive: -12.2%
CCN1CCN(Cc2c(O)ccc3cc(-c4ccc(OC)cc4)c(=O)oc23)CC1	inactive: -19.8%
COc1ccc(C2c3cccn3CCN2S(=O)(=O)c2ccc([N+](=O)[O-])cc2)cc1 (stereo not given)	inactive: 13.3%
CC(=O)c1cccc(NC(=O)c2nc(-c3ccccc3)n(-c3ccccc3C)n2)c1	inactive: -27%
COc1ccc(C)cc1Nc1nc(N)c2cc(OC)c(OC)cc2n1	inactive: -26.4%
Cc1nnc(N2CCCC(C(=O)NCCc3ccccc3)C2)c2nn(-c3ccccc3)c(C)c12 (stereo not given)	inactive: -2.38%
Cc1ccc(S(=O)(=O)c2nc(-c3cccc(Cl)c3)oc2NCc2ccccc2)cc1	inactive: -29.3%
CN(C)CCNC(=O)c1ccc2c(c1)N(Cc1c(F)cccc1Cl)C(=O)c1ccccc1S2	inactive: -29.8%
CCOC(=O)Cn1c(=O)oc2cc(S(=O)(=O)N3CCN(c4cc(C)ccc4C)CC3)ccc21	inactive: -8.5%
CCOC(=O)c1c(NC(=O)c2ccc(C)c(C)c2)sc2c1CCCCC2	inactive: -7.11%
Cn1cnc(S(=O)(=O)N2CCCC(C(=O)Nc3ccc(OC(F)(F)F)cc3)C2)c1 (stereo not given)	inactive: -27.3%
CCc1ccc(C(=O)NC2=NC(c3ccccc3F)CC(=O)N2)cc1 (stereo not given)	inactive: -10.9%

SMILES	activity change, negative = inhibition
CCC(=O)N1CCc2cc(S(=O)(=O)NC(C(=O)Nc3cc(OC)cc(OC)c3)C(C)C)ccc21 (stereo not given)	inactive: -4.3%
COCCCNC(=O)c1ccc2nc(CCc3ccccc3)oc2c1	inactive: 14.3%
CN[C@@H]1[C@H](O)[C@H](NC)[C@H]2O[C@@]3(O)C(=O)C[C@@H](C)O[C@H]3O[C@@H]2[C@H]1O	inactive: 14.3%
Cc1c(Cl)ccc2sc(N3CCN(C(=O)CS(=O)(=O)c4ccccc4)CC3)nc12	inactive: -9.27%
CCOc1ccc(CNC(=O)Cn2c(=O)c3cccn3c3ccccc32)cc1	inactive: -3.43%
Cc1ccc(OCC(=O)Nc2ccc(-c3nc4ccccc4o3)cc2)c(C)c1	inactive: 21.3%
O=C(Nc1ccccc1Br)N1CCC(CN2CCCC2)CC1	inactive: -17.6%
CCn1cc2nc(SCc3cccc(C(F)(F)F)c3)n(Cc3ccc(C)cc3)c(=O)c2n1	inactive: -8.56%
Cc1cc(F)ccc1NC(=O)c1c(C)oc2c1C1=NCCN1C=N2	inactive: 0.0919%
CCc1ccccc1NC(=O)CSc1nc2c(c(=O)[nH]1)CN(Cc1ccccc1OC)CC2	inactive: -18%
Cc1cc(C)c2c(N)c(C(=O)Nc3ccccc3C(F)(F)F)sc2n1	inactive: 18.2%
CCC1CN(C(=O)Nc2cc(Cl)ccc2C(=O)OC)c2ccccc2S1 (stereo not given)	inactive: -11.2%
COc1ccc(OC)c(NC(=O)COCc2cc(-c3ccc(F)cc3)on2)c1	inactive: -17.8%
Cc1ccc(C)c(Cn2c(=O)n(CCCC(=O)NCc3ccc4c(c3)OCO4)c(=O)c3sccc32)c1	inactive: -29.7%
CN(C(=O)c1nn(C)c2c1CS(=O)(=O)c1ccccc1-2)c1cccc(Cl)c1	inactive: -16.9%
CCC(C)c1ccc(OCC(=O)Nc2ccc(-c3nc4ncccc4o3)cc2)cc1 (stereo not given)	inactive: 37.4%
CC(C)Oc1ccc(C(=O)N2CCCCC2CCN2CCCCC2)cc1 (stereo not given)	inactive: 0.251%
CCOC(=O)c1sc(N2C(=O)c3oc4ccc(F)cc4c(=O)c3C2c2ccc(O)cc2)nc1C (stereo not given)	inactive: -12.2%
Cc1ccc(/C=C/c2onc(C)c2S(=O)(=O)N2CCC(C(=O)N(CCC(C)C)Cc3ccco3)CC2)cc1	inactive: -9.44%
CCc1cccc(NC(=O)CCNS(=O)(=O)c2ccc3c(c2)CCN3C(C)=O)c1	inactive: -24.6%
Cc1ccc(CNC(=O)c2ccc(CS(=O)(=O)c3ccccc3C)o2)cc1	inactive: -1.8%
Cc1ccc(N2C(=O)CSC23C(=O)N(CC(=O)Nc2ccccc2F)c2ccccc23)cc1C (stereo not given)	inactive: -17.8%
